# According to PubChem BioAssay AID463173 (ICCB-Longwood Screening Facility, Harvard Medical School, 2010):
# Among all 52,000 compounds or so, about 1,700 (3.3%) were called active. No stated cut-off is given here; in the data, active means survival mostly below about 52% (no sharp cut-off); inactive means mostly above about 56%. This is one part of the list.
# Tested on: Wild type
# Assay: growth inhibition of S. aureus wild type versus tarO mutant, primary screen, teichoic acid synthesis inhibitors, RN4220, OD600 (AID 463173)
# Conditions: S. aureus RN4220 wild type/DeltatarO growth, OD600, 18 h, hits give low values, screened at 18.75 µg/mL (by protocol)
row,Compound,survival
1,CNc1nc(-c2ccc3c(c2)CCN3S(=O)(=O)c2ccccc2)cs1,inactive: 102%
2,CCC(Nc1ccc(-c2nc(-c3ccco3)no2)cc1[N+](=O)[O-])c1ccccc1 (stereo not given),inactive: 95%
3,Cc1cccc(-c2nc(CCNC(=O)Cc3ccc(F)cc3)cs2)c1,active: 14%
4,COc1ccccc1NC(=O)CSc1ccc(-c2sc(C)nc2C)nn1,inactive: 81%
5,COc1cccc(CNCCSc2nnnn2C)c1OCc1ccc(Cl)cc1Cl,inactive: 79%
6,COc1ccccc1CNC(=O)Cn1c(=O)oc2cc(S(=O)(=O)N3CCC(C)CC3)ccc21,inactive: 136%
7,COC(=O)[n+]1ccc(N2CCOCC2)cc1,inactive: 137%
8,COc1ccc(C2c3cccn3CCN2S(=O)(=O)c2ccccc2[N+](=O)[O-])cc1OC (stereo not given),inactive: 135%
9,CC(CNC(=O)Cn1ccc2cc(S(=O)(=O)N3CCCCC3)ccc21)c1ccccc1 (stereo not given),inactive: 72%
10,O=C(NCC(c1ccc2c(c1)OCO2)N1CCOCC1)c1ccccc1F (stereo not given),inactive: 101%
11,CCc1ccc2occ(CC(=O)Nc3c(C(=O)Nc4ccc(OC)cc4)oc4ccccc34)c2c1,inactive: 87%
12,O=C(NCc1ccccc1)c1nnc(Cc2cccc(F)c2)o1,inactive: 89%
13,Cc1cccn2cc(-c3cccc(NS(=O)(=O)c4ccc(Cl)c(Cl)c4)c3)nc12,inactive: 61%
14,CCc1ccc(CNC(=O)CCc2c(C)nn(-c3ccc(N4CCCCC4)nn3)c2C)cc1,inactive: 73%
15,Cc1cc2nn(-c3ccc(F)cc3)nc2cc1NC(=O)c1ccc(OC(C)C)cc1,inactive: 85%
16,C1CCC(CNCC2CCCO2)CC1 (stereo not given),inactive: 102%
17,Cc1ccc2nc(Cl)c3cc(C(=O)N(C)C4CCCCC4)sc3c2c1,inactive: 35%
18,CCOc1ccc(CCNC(=O)C2CCN(C(=O)N3CC(CC)Oc4ccc(C)cc43)CC2)cc1 (stereo not given),inactive: 86%
19,CCn1c(CNC(=O)c2ccc(OC)cc2)nnc1SCC(=O)Nc1cccc(C)c1C,inactive: 139%
20,CCOC(=O)c1c(C)oc2nc(C)nc(NCC3CCN(Cc4cccc(C)c4)CC3)c12,inactive: 82%
21,Cc1ccc(NC(=O)CSc2nc3ccc(NC(=O)c4cccs4)cc3s2)c(C)c1,inactive: 86%
22,COc1cccc(Cn2c(=O)n(-c3cccc(Cl)c3C)c(=O)c3c4c(sc32)CN(C(C)=O)CC4)c1,inactive: 75%
23,Cc1ccc(NC(=O)Cn2c(=O)n(-c3ccc(CC(=O)NCC4CCCO4)cc3)c(=O)c3ccccc32)cc1 (stereo not given),inactive: 104%
24,CCCNC(=O)N1CCc2cc(OC)c(OC)cc2C1c1cc2cc3c(cc2[nH]c1=O)OCO3 (stereo not given),inactive: 115%
25,CCOc1ccc(-n2c(=O)c3c4c(sc3n(Cc3cccc(Cl)c3)c2=O)CCCC4)cc1,inactive: 71%
26,CC1=C(c2ccc(C)c(C)c2)S(=O)(=O)N=C1N1CCN(c2cccc(C(F)(F)F)c2)CC1,inactive: 85%
27,CCCCN1CC(c2nc3ccccc3n2CCCCOc2c(C)cccc2C)CC1=O (stereo not given),inactive: 61%
28,CCCC(=O)N(c1ccc2oc(-c3ccccc3)c(C(=O)OCC)c2c1)S(=O)(=O)c1ccc(C)cc1,inactive: 153%

row,Compound,survival
1,COCCCNC(=O)Cn1c(=O)n(CCCC(=O)NCc2ccc(C)cc2)c(=O)c2ccccc21,inactive: 70%
2,O=C(NCC(c1ccc2c(c1)OCO2)N1CCOCC1)c1ccc(F)cc1 (stereo not given),inactive: 65%
3,Cc1ccc(/C=C(\C#N)c2nc(-c3cc4c(ccc5ccccc54)oc3=O)cs2)cc1,inactive: 130%
4,CCOc1ccc(Sc2cc(C(=O)NCCc3ccc(OC)c(OC)c3)c3ccccc3n2)cc1,inactive: 88%
5,O=C(Nc1ccccc1)Nc1cccc2nsnc12,inactive: 123%
6,CC(C)CN(c1ccccc1)S(=O)(=O)c1nnc(NC(=O)c2ccco2)s1,inactive: 47%
7,CC(=O)c1c(C)oc2ccc(N(C(=O)Oc3ccccc3)S(=O)(=O)c3ccc(Br)cc3)cc12,inactive: 121%
8,Cc1cccc(C(=O)Nc2ccccc2-c2nc(-c3ccccc3)no2)c1,inactive: 86%
9,CCn1cc(C(=O)N2CCN(c3ccccc3OC)CC2)c(=O)c2cc(S(=O)(=O)N3CCCCC3)ccc21,inactive: 90%
10,COc1ccc(-c2nn(-c3ccccc3)cc2C(=O)Nc2ccccc2OC)cc1,active: 3%
11,CCOc1ccccc1NC(=O)Cn1c(=O)n(Cc2ccc(C(=O)NCCCOC)cc2)c(=O)c2ccccc21,inactive: 97%
12,COc1cc(OC)c(NC(=O)c2oc3ccc4c(c3c2C)C(=O)CC(C)(C)O4)cc1Cl,inactive: 113%
13,O=C(CCSCc1ccccc1F)N1CCN(c2ccc(F)cc2)CC1,inactive: 63%
14,COc1ccc(NC(=O)N2CCc3c(sc4c3CCCC4)C2c2ccc(F)cc2)cc1 (stereo not given),inactive: 95%
15,Cn1cc(C(=O)NCc2ccc(F)cc2)c(=O)c2cc(S(=O)(=O)N3CCCCC3)ccc21,inactive: 74%
16,CC(C)c1ccc(Nc2nc3ccc(C(=O)c4ccccc4)cc3n3cnnc23)cc1,inactive: 72%
17,CCn1c(=O)c2cc(C(=O)N(C)c3cc(C)ccc3C)sc2c2ccccc21,inactive: 125%
18,Cc1ccc(NC(=O)Nc2nnc(N3CCCCC3)s2)c(C)c1,inactive: 97%
19,CCc1ccc(CNC(=O)c2cc3c(=O)oc4ccc(C)cc4c3s2)cc1,inactive: 91%
20,CCN(C(=O)c1sc2nc3n(c(=O)c2c1C)CCCCC3)c1ccccc1F,inactive: 80%
21,CCNc1nc(NCC)nc(N(n2cnnc2)S(=O)(=O)c2ccc(C)cc2)n1,inactive: 45%
22,CN(C)C(=O)c1ccc(S(=O)(=O)NCc2ccccc2Cl)s1,inactive: 87%
23,COc1cc(OC)cc(-n2c(=O)[nH]c3cc(C(=O)NCCc4ccc(C)cc4)ccc3c2=O)c1,inactive: 95%
24,COc1ccc(NC(=O)c2ccc3snnc3c2)cc1OC,inactive: 103%
25,COc1ccc(-c2cc(C(F)(F)F)nc(SCC(=O)NCc3ccc(F)cc3)n2)cc1,inactive: 90%
26,COc1cccc(NC(=O)Cn2c(=O)n(Cc3ccccc3)c(=O)c3c4c(sc32)CN(C(C)=O)CC4)c1,inactive: 131%
27,Cn1c(=O)c(C(=O)NCCN2CCNCC2)c(O)c2ccccc21,inactive: 105%
